Data on 89 compounds can be found in article PMC4336329 (PLoS ONE, 2015).

The structures appear in SMILES notation. Among all 310,000 compounds or so, about 2,200 (0.71%) showed an effect of 50% or more. The effect is printed as a negative number. This is one part of the list.

The target in this assay is human ether-à-go-go-related gene (hERG) potassium channel (human, UniProt Q12809). Kind of assay: primary screen, population patch clamp on CHO cells stably expressing hERG.
Sequence of human ether-à-go-go-related gene (hERG) potassium channel (Q12809 whole entry, looked up): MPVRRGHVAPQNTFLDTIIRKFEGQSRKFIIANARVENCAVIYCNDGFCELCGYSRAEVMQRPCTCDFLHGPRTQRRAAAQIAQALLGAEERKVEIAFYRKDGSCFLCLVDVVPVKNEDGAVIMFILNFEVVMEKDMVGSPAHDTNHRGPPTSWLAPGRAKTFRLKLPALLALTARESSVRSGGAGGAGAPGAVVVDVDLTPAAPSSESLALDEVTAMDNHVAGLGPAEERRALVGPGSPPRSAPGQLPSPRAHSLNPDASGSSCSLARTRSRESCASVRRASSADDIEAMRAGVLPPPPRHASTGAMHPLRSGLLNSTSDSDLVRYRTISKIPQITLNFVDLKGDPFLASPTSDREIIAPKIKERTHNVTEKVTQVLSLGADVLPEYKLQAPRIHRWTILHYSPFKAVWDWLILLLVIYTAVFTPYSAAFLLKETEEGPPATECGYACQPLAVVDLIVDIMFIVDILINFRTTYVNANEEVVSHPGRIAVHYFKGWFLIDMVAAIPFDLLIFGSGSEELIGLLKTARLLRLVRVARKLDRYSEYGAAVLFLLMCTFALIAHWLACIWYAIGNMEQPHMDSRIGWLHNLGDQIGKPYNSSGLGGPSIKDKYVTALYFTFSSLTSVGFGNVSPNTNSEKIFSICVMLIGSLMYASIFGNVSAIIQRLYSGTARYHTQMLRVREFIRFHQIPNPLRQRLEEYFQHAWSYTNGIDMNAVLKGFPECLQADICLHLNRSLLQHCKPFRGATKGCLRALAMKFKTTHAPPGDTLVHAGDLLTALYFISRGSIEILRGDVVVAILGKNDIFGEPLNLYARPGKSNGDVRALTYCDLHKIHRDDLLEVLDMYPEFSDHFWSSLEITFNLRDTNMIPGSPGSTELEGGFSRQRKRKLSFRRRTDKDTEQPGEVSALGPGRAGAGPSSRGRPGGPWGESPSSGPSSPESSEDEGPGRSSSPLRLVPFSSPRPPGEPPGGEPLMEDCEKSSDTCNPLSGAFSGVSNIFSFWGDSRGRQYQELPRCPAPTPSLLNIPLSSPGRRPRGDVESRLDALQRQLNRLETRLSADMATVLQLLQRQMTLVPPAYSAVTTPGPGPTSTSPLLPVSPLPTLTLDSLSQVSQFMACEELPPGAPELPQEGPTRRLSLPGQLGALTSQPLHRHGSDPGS
For `COc1ccc(OC)c(CCNC(=O)Cn2cccc2C(=O)c2ccccc2)c1`, the “hERG current change (%, negative = inhibition) at 1uM” value is on record as 6.75%.
To `CCc1ccc(C(=O)Cn2cnc3cc([N+](=O)[O-])ccc3c2=O)cc1` belongs 2.52%; to `CCOC(=O)CSc1nc2cc3c(cc2cc1C#N)OCCO3`, 12.2%; to `CCOC(=O)Cn1nc(-c2ccc(C)cc2)c2ccccc2c1=O`, 12.8%.
Consider `COc1cccc(CN2CCCC(C(=O)Nc3ccc(-c4cscn4)cc3)C2)c1` (centres unmarked), for which the “hERG current change (%, negative = inhibition) at 1uM” value is -10.8%.
On to `Cc1cccc(/C=N/Nc2cc(N3CCOCC3)nc(N3CCOCC3)n2)c1`, for which the “hERG current change (%, negative = inhibition) at 1uM” value is on record as 9.7%.
On to `NNC(=O)c1n[nH]c(=O)c2ccccc12`, for which the “hERG current change (%, negative = inhibition) at 1uM” value stood at 8.26%.
Regarding `CC1CCN(C2=NC(=O)/C(=C/c3ccc(O)cc3)S2)CC1`, the “hERG current change (%, negative = inhibition) at 1uM” value is on record as -18.2%.
The value for `O=C(CSc1nnnn1-c1ccc(C(=O)O)cc1)NC1CC1` was -7.78%; that for `CCOc1ccc(N(CC(=O)NCCSCc2ccco2)S(=O)(=O)c2ccc(C)cc2)cc1` was 9.21%; that for `Cc1cc(Cl)cc(C)c1OCCNCc1ccccc1.O=C(O)C(=O)O` was 9.5%.
In the case of `O=C(O)Cn1nc(C(F)(F)F)c2c1CCCCC2`, the “hERG current change (%, negative = inhibition) at 1uM” value is -10.1%.
With `CC(C)(C)c1ccc(OCc2ccc(C(=O)N/N=C/c3ccc([N+](=O)[O-])cc3)o2)cc1`, the “hERG current change (%, negative = inhibition) at 1uM” value was 8.39%.
The value for `CC1CN(S(=O)(=O)c2cccc(C(F)(F)F)c2)C(C)N1C(=O)N1CCOCC1` (centres unmarked) was 16.7%.
`COc1ccc(-c2nnn(CC(=O)N(CCN3CCOCC3)C(C(=O)NC3CCCCC3)c3ccco3)n2)cc1` (centres unmarked): the “hERG current change (%, negative = inhibition) at 1uM” value is given as 7.48%.
To `COc1ccc(C2CC2C(=O)c2ccccn2)cc1` (centres unmarked) belongs 10.5%.
As for `Cc1ccc(C)c(N2CCN(CCCNC(=O)Cn3c(=O)c4cccn4c4cccnc43)CC2)c1`, the “hERG current change (%, negative = inhibition) at 1uM” value is listed as -22.3%.
Take `CCSc1nnc(CNC(=O)C23CC4CC(CC(C4)C2)C3)n1Cc1ccccc1`: the “hERG current change (%, negative = inhibition) at 1uM” value is reported as 11.2%.
Regarding `CC(=O)Nc1nc(-c2ccc(Cl)cc2)nc(C)c1C(C)=O`, the “hERG current change (%, negative = inhibition) at 1uM” value came to 4.22%.
On to `COC(=O)c1cc(=O)n(Cc2ccco2)c(=Nc2ccc(F)cc2)s1`, for which the “hERG current change (%, negative = inhibition) at 1uM” value was found to be 3.79%.
Take `O=C(c1cc2ccccc2o1)N1CCN(c2ccccn2)CC1`: the “hERG current change (%, negative = inhibition) at 1uM” value was determined as 4.04%.
To `O=C(COc1coc(CN2CCN(c3ccccc3)CC2)cc1=O)NC1CCCC1` belongs 4.28%; to `CCCn1nc(NC(=O)c2cccs2)c2cc3ccccc3nc21`, -10.3%; to `COc1cccc(-c2nnn(CC(=O)N3CCC(C)CC3)n2)c1`, 19.4%.
In the case of `CCOC(=O)c1ccc(N2C(=O)CC(Sc3nnc(C)s3)C2=O)cc1` (centres unmarked), the “hERG current change (%, negative = inhibition) at 1uM” value amounted to 14.2%.
Regarding `COCc1[nH]nc2c1C(c1cc(OC)c(O)c(OC)c1)C(C#N)=C(N)O2` (centres unmarked), the “hERG current change (%, negative = inhibition) at 1uM” value is 11%.
Consider `O=C(NNS(=O)(=O)c1ccccc1)Nc1ccc(F)cc1`, for which the “hERG current change (%, negative = inhibition) at 1uM” value turned out to be 5.39%.
Regarding `O=C(OCc1nnc(-c2ccccc2)o1)c1ccc(Br)o1`, the “hERG current change (%, negative = inhibition) at 1uM” value turned out to be 6.57%.
Regarding `CC(NC(=O)NC1CCCCC1)C(c1cccs1)N1CCOCC1` (centres unmarked), the “hERG current change (%, negative = inhibition) at 1uM” value is recorded as 14.3%.
Take `CC(C)c1cc(C(F)(F)F)n2nc(C(=O)Nc3ccc(-n4cnnn4)cc3)cc2n1`: the “hERG current change (%, negative = inhibition) at 1uM” value stood at 11.7%.
`Cc1ccc(Sc2c([N+](=O)[O-])ncn2C)cc1`: the “hERG current change (%, negative = inhibition) at 1uM” value is listed as 8.06%.
As for `Cc1nc(Cl)c2oc3ccccc3c2n1`, the “hERG current change (%, negative = inhibition) at 1uM” value was found to be 8.52%.
As to `O=C(CC1(O)C(=O)Nc2cc(Cl)cc(Cl)c21)c1ccccc1O` (centres unmarked), the “hERG current change (%, negative = inhibition) at 1uM” value turned out to be 6.29%.
To `CCc1ccccc1NC(=O)CN(C)C(=O)c1cc(C2CC2)nn1-c1ccccc1` belongs 18.1%.
Consider `C[C@]12CCC(=O)C=C1CC[C@@H]1[C@@H]2[C@@H](O)C[C@@]2(C)[C@H]1CC[C@]2(O)C(=O)COC(=O)CCC(=O)[O-].[Na+]`, for which the “hERG current change (%, negative = inhibition) at 1uM” value was 8.86%.
As to `COc1ccc(S(=O)(=O)N(C)CC(=O)NC2CCCCC2)cc1OC`, the “hERG current change (%, negative = inhibition) at 1uM” value was 9.34%.
As for `CCOC(=O)C1(CCCc2ccccc2)CCN(Cc2ccn[nH]2)CC1`, the “hERG current change (%, negative = inhibition) at 1uM” value is -27.8%.
With `CC(C)c1nc2ccccc2n1CCC(=O)O`, the “hERG current change (%, negative = inhibition) at 1uM” value was found to be 4.92%.
Consider `COC(=O)C1=CN(c2ccc(F)c(F)c2)C=C(C(=O)OC)C1c1ccc([N+](=O)[O-])cc1`, for which the “hERG current change (%, negative = inhibition) at 1uM” value is recorded as -5.26%.
As to `CCCN(CC(=O)Nc1ccccc1C)C(=O)C1CC(=O)N(Cc2ccccc2)C1` (centres unmarked), the “hERG current change (%, negative = inhibition) at 1uM” value came out at 1.21%.
On to `CCNc1c(NS(=O)(=O)c2ccc(OC)cc2)c(=O)oc2ccccc12`, for which the “hERG current change (%, negative = inhibition) at 1uM” value is recorded as -6.47%.
Take `CC(C)CC(=O)Nc1ccc2nn(-c3ccccc3)nc2c1`: the “hERG current change (%, negative = inhibition) at 1uM” value is listed as 18.4%.
As for `CCC(Oc1ccc2c(=O)c(-c3ccccc3OC)coc2c1)C(=O)OCc1ccccc1` (centres unmarked), the “hERG current change (%, negative = inhibition) at 1uM” value is 13%.
The value for `FC(F)(F)c1nc(N2CCN(c3ccccc3)CC2)nc2c1CCCCC2` was 7.78%.
With `Cc1ccc2nc(-c3ccc(NS(=O)(=O)c4ccc(F)c(F)c4)cc3)sc2c1`, the “hERG current change (%, negative = inhibition) at 1uM” value is reported as 12.9%.
Regarding `CCOC(OCC)c1ccc(/C=C\c2nccc(N)n2)cc1`, the “hERG current change (%, negative = inhibition) at 1uM” value amounted to 11.4%.
`CCOc1ccc(CN(C)C(=O)CNC(=O)c2ccccc2)cc1`: the “hERG current change (%, negative = inhibition) at 1uM” value stood at 13.3%.
To `O=[N+]([O-])c1cccc(-c2nnn(C34CC5CC(CC(C5)C3)C4)n2)c1` belongs -3.57%; to `COC(=O)C(NC(C)=O)(Nc1cc(C)ccn1)C(F)(F)F` (centres unmarked), 12.6%.
On to `CCN1CCN(c2cc(=O)n(Cc3ccc(F)cc3)c(=O)[nH]2)CC1`, for which the “hERG current change (%, negative = inhibition) at 1uM” value was found to be 11.8%.
For `O=C(NCc1ccccc1)C1=C[C@@H](c2ccccc2)C[C@@H](OCc2ccc(CO)cc2)O1`, the “hERG current change (%, negative = inhibition) at 1uM” value was 11.8%.
To `Cc1ccc(C(=O)NC(C)C(c2cccs2)N2CCCC2)s1` (centres unmarked) belongs 15%.
In the case of `COc1ccccc1/C=N/NC(=O)c1ccc(Br)cc1`, the “hERG current change (%, negative = inhibition) at 1uM” value is on record as 5.58%.
Regarding `CCOC(=O)c1ccc(NC(=O)NCc2ccc(OC)cc2)cc1`, the “hERG current change (%, negative = inhibition) at 1uM” value is given as 4.73%.
The value for `CCOC(=O)C1=C2c3ccc4ccccc4c3CC(C)(C)N2C(=O)C1=O` was 1.39%.
The value for `CC12CCC(C(=O)NCCN3CCCCC3)(CC1=O)C2(C)C` (centres unmarked) was -2.33%; that for `COc1ccc(CC(=O)OCC(=O)Nc2cccnc2Cl)cc1OC` was 2.52%; that for `N#Cc1c2n(c3c(=S)nc[nH]c13)CCCCC2` was 11.1%.
`N#C/C(=C\c1ccc(OCc2ccc(F)cc2)cc1)C(=O)Nc1cccc(C(=O)O)c1`: the “hERG current change (%, negative = inhibition) at 1uM” value is on record as -0.315%.
For the compound `COc1cc(OC)nc(Oc2ccccc2C(=O)Oc2cccc(C)c2)n1`, the “hERG current change (%, negative = inhibition) at 1uM” value is recorded as 13.7%.
Turning to `COc1cc2cc(C(c3nnnn3C3CCCC3)N(C)C3CCCCC3)c(=O)[nH]c2cc1OC` (centres unmarked), the “hERG current change (%, negative = inhibition) at 1uM” value was -1.16%.
For `Cn1cnc([N+](=O)[O-])c1S(=O)(=O)c1cccc(Cl)c1`, the “hERG current change (%, negative = inhibition) at 1uM” value came out at 8.67%.
To `Cc1cc(C)cc(N(CC(=O)N2CCOCC2)S(=O)(=O)c2ccccc2)c1` belongs -25.8%; to `O=C(CSc1nnc(NC(=O)c2cc(Br)ccc2Cl)s1)NCC1CCCO1` (centres unmarked), 8.35%.
As to `CC(C)C(=O)Nc1ccc(C(=O)CSc2nnc(C3CC3)n2C2CC2)cc1`, the “hERG current change (%, negative = inhibition) at 1uM” value is 11.7%.
For `NC(=O)c1nsc(C(=O)N(c2ccc(F)cc2)C(C(=O)NC2CCCC2)c2ccncc2)c1N` (centres unmarked), the “hERG current change (%, negative = inhibition) at 1uM” value is listed as 0.0133%.
As for `COC(=O)c1cc(-n2cccc2)ccc1N1CCOCC1`, the “hERG current change (%, negative = inhibition) at 1uM” value is given as 9.85%.
As for `Oc1ccc(/C=N/Nc2nccnc2Cl)cc1`, the “hERG current change (%, negative = inhibition) at 1uM” value is recorded as 7.53%.
For `CC1Cc2ccccc2N1C(=O)CSc1nnc(-c2ccc(S(=O)(=O)N3CCOCC3)cc2)n1C` (centres unmarked), the “hERG current change (%, negative = inhibition) at 1uM” value is on record as 7.38%.
For the compound `CCOC(=O)c1sc(NC(=O)CCN2CCC(C)CC2)c(C(=O)OCC)c1C`, the “hERG current change (%, negative = inhibition) at 1uM” value is reported as 13.9%.
With `CCN(CC)S(=O)(=O)c1ccc(OC)c(-n2cnnn2)c1`, the “hERG current change (%, negative = inhibition) at 1uM” value was found to be 13.9%.
On to `CCn1c(O)c(C=NCc2ccccc2)sc1=S`, for which the “hERG current change (%, negative = inhibition) at 1uM” value is listed as 10.6%.
As to `CSc1ccc(S(=O)(=O)Nc2ccc(OCC(=O)N3CCOCC3)cc2)cc1`, the “hERG current change (%, negative = inhibition) at 1uM” value came out at 18.9%.
The value for `COc1ccccc1NC(=S)NC1CCCCCCCCCCC1` was 13.2%; that for `CC(C)CC(=O)NN1CCCCC1` was 13%.
To `CN1CCN(c2ccc([N+](=O)[O-])cc2C(=O)N2CCOCC2)CC1` belongs 10.1%; to `CCOc1c(C)cc(S(=O)(=O)NCc2cccnc2)c(C)c1C`, 10.8%; to `Cc1cccc(C)c1OCc1cc(C(=O)N2CCC(c3ccncc3)CC2)no1`, -6.14%.
As for `CCc1ccc(S(=O)(=O)NCc2csc(C)n2)s1`, the “hERG current change (%, negative = inhibition) at 1uM” value stood at 6.47%.
`O=C(COC(=O)C1CC(=O)N(Cc2ccco2)C1)c1ccc(OC(=O)c2ccccc2)cc1` (centres unmarked): the “hERG current change (%, negative = inhibition) at 1uM” value was 3.52%.
Regarding `COC(=O)c1c(NC(=O)COC(=O)CNC(=O)c2ccco2)sc(C)c1C`, the “hERG current change (%, negative = inhibition) at 1uM” value was found to be 13%.
`Cc1ccc(Nc2c3c(nc4ccccc24)CCC3)cc1.Cl`: the “hERG current change (%, negative = inhibition) at 1uM” value is -57.7%.
As to `C=CCc1cc(Cl)ccc1OCCCNC(C)C.O=C(O)C(=O)O`, the “hERG current change (%, negative = inhibition) at 1uM” value is -7.92%.
Regarding `CC(C)(C)c1cc(CN(CCO)CCO)cc(C(C)(C)C)c1O`, the “hERG current change (%, negative = inhibition) at 1uM” value is reported as -1.48%.
The value for `O=C(NC(=S)N1CCCCCC1)c1ccccc1Cl` was 3%.
For the compound `Cc1nn(Cc2ccc(F)cc2)c2sc(C(=O)Nc3nccs3)cc12`, the “hERG current change (%, negative = inhibition) at 1uM” value turned out to be 12.8%.
With `C/C=C(/C)C(=O)Nc1cccc(C2=NOC3(C2)C[C@H](C(N)=O)N(C(=O)COc2ccc(Cl)cc2)C3)c1` (some centres unmarked), the “hERG current change (%, negative = inhibition) at 1uM” value was found to be 6.7%.
With `O=C(O)c1ccccc1NS(=O)(=O)c1cccc(C(F)(F)F)c1`, the “hERG current change (%, negative = inhibition) at 1uM” value was determined as 3.23%.
To `Cc1ccc(NC(=O)CCc2c(C)nn(-c3ccc(N4CCOCC4)nn3)c2C)c(C)c1` belongs 15.3%.
